Our source for the enrichment ratio values is a collection of fitness landscapes (doi:10.1126/science.1257360).

Some of the results follow. Bounds are passed on as bounds.

B1: PhoQ; a variant is named by its letters at X, in order, P23837 (parent)
chain: MKKLLRLFFPLSLRVRFLLATAAVVLVLSLAYGMVALIGYSVSFDKTTFRLLRGESNLFYTLAKWENNKLHVELPENIDKQSPTMTLIYDENGQLLWAQRDVPWLMKMIQPDWLKSNGFHEIEADVNDTSLLLSGDHSIQQQLQEVREDDDDAEMTHSVAVNVYPATSRMPKLTIVVVDTIPVELKSSYMVWSWFIYVLSANLLLVIPLLWVAAWWSLRPIEALAKEVRELEEHNRELLNPATTRELTSLVRNLNRLLKSERERYDKYRTTLTDLTHSLKTPLXXLQXXLRSLRSEKMSVSDAEPVMLEQISRISQQIGYYLHRASMRGGTLLSRELHPVAPLLDNLTSALNKVYQRKGVNISLDISPEISFVGEQNDFVEVMGNVLDNACKYCLEFVEISARQTDEHLYIVVEDDGPGIPLSKREVIFDRGQRVDTLRPGQGVGLAVAREITEQYEGKIVAGESMLGGARMEVIFGRQHSAPKDE

In the experiment the parent is B1. Description: enrichment ratio after two sorts for PhoP signalling (ratio (wild type AVST 3.29)); higher = more functional. Particulars: with PhoP (E. coli).
In the case of YKMY, the enrichment ratio was ≤ 0.25.

Regarding DEFE, the enrichment ratio is ≤ 0.25.

For MMMT, the enrichment ratio is ≤ 0.25. With RWTY the figure was ≤ 0.25.

Take FETR: the enrichment ratio is ≤ 0.25. With GRHG the figure was ≤ 0.25; with HTKP, ≤ 0.25. Next, LVCS: ≤ 0.25. With SAFM the figure was 2.73. On to REVV, for which the enrichment ratio was 0.48. With GNLC the figure was 4.14; with KTEV, ≤ 0.25; with GETV, 0.874.

For the variant DIEL, the enrichment ratio was ≤ 0.25. With DISY the figure was ≤ 0.25. With FRPM the figure was ≤ 0.25; with EQNN, ≤ 0.25. Consider LSMF, for which the enrichment ratio is ≤ 0.25. In the case of TLFV, the enrichment ratio is ≤ 0.25. Next, QPYP: ≤ 0.25; RDTG: ≤ 0.25.

Regarding FPYI, the enrichment ratio was ≤ 0.25.

LGWM: the enrichment ratio is 2.02.

Consider MVCC, for which the enrichment ratio was ≤ 0.25. Next, FWFN: ≤ 0.25; QQIV: ≤ 0.25. With VRFT the figure was ≤ 0.25; with EEFW, ≤ 0.25.

As for NAER, the enrichment ratio was ≤ 0.25. With SEDM the figure was ≤ 0.25; with GPYA, ≤ 0.25; with FVCH, ≤ 0.25. Next, EPYL: ≤ 0.25. As for ECTF, the enrichment ratio was ≤ 0.25. With QQTY the figure was ≤ 0.25. For QESV, the enrichment ratio was 29.9.

For the variant MCDI, the enrichment ratio is ≤ 0.25. Next, DTNT: ≤ 0.25; YSHL: ≤ 0.25; FRMQ: ≤ 0.25. Next, GLPK: ≤ 0.25; IYLL: ≤ 0.25; LSCV: ≤ 0.25.

With DDYR, the enrichment ratio is ≤ 0.25.

With PGYM, the enrichment ratio is ≤ 0.25. With RDFY the figure was ≤ 0.25; with IKMG, ≤ 0.25. As for IAPG, the enrichment ratio was ≤ 0.25. Next, EYGE: ≤ 0.25. With RWWV, the enrichment ratio was ≤ 0.25. With AFNF the figure was ≤ 0.25. Next, PLEF: ≤ 0.25; YCEF: ≤ 0.25. With ENNL the figure was ≤ 0.25; with KDSR, ≤ 0.25; with MIMD, ≤ 0.25. For RQKI, the enrichment ratio is 19.2. Next, KFHM: ≤ 0.25. With NWML the figure was ≤ 0.25. With YQGL the figure was ≤ 0.25; with YLCV, ≤ 0.25; with AIHQ, ≤ 0.25.

On to TIHY, for which the enrichment ratio was ≤ 0.25. With REYQ the figure was ≤ 0.25; with HTCF, ≤ 0.25. For LQIP, the enrichment ratio is ≤ 0.25. For KYHE, the enrichment ratio was ≤ 0.25. With ANEG the figure was ≤ 0.25; with LQYL, ≤ 0.25.

SPQT: the enrichment ratio was ≤ 0.25. With PPEK the figure was ≤ 0.25.

Turning to STVF, the enrichment ratio came to 8.56. Next, TESG: 24.9.

For WFMN, the enrichment ratio is ≤ 0.25. With AIGT the figure was ≤ 0.25; with FEKF, ≤ 0.25. Next, YPCV: ≤ 0.25; QACI: ≤ 0.25.

For SGFE, the enrichment ratio was ≤ 0.25.

Take ATPQ: the enrichment ratio was ≤ 0.25. For the variant TFGN, the enrichment ratio was ≤ 0.25. Next, ECVH: ≤ 0.25; EAHW: 1.32. As for REHP, the enrichment ratio is ≤ 0.25. Turning to KHLY, the enrichment ratio was ≤ 0.25.

With THMK, the enrichment ratio was ≤ 0.25. Take TEYN: the enrichment ratio stood at 3.14. GFGC: the enrichment ratio was ≤ 0.25.

In the case of VTIR, the enrichment ratio is ≤ 0.25. As for NCMS, the enrichment ratio is ≤ 0.25. Next, QEAD: ≤ 0.25; FWHY: ≤ 0.25. With HRIV the figure was ≤ 0.25; with SMHR, ≤ 0.25. Take MQVT: the enrichment ratio is 4.23. Next, RFWP: 0.407. With MDRS the figure was ≤ 0.25. Next, WENN: ≤ 0.25; KADD: ≤ 0.25; IVCP: ≤ 0.25. For RTWA, the enrichment ratio was ≤ 0.25.

In the case of LGQD, the enrichment ratio is ≤ 0.25.

In the case of EHYI, the enrichment ratio was ≤ 0.25. With KAAF the figure was ≤ 0.25; with VSDA, ≤ 0.25.

As for HNWY, the enrichment ratio was ≤ 0.25. Next, YYNV: ≤ 0.25; MGAM: 14.1. With EQCG the figure was ≤ 0.25. With SQGC the figure was 1.76; with CTDF, ≤ 0.25; with VIIP, ≤ 0.25. For YHHK, the enrichment ratio is ≤ 0.25. Take MLFK: the enrichment ratio is ≤ 0.25. Next, HGLR: ≤ 0.25; ALQL: 8.94. With DRFE the figure was ≤ 0.25; with NNVF, ≤ 0.25. Take HIRK: the enrichment ratio is ≤ 0.25.

For the variant TVVH, the enrichment ratio was ≤ 0.25. Next, LIGW: ≤ 0.25; GRWY: ≤ 0.25; LKSD: ≤ 0.25. With ITKC the figure was ≤ 0.25; with SRMY, ≤ 0.25.

For the variant PIVC, the enrichment ratio was ≤ 0.25. Next, IVHW: ≤ 0.25. Next, KPAE: ≤ 0.25. Next, AMGV: ≤ 0.25. With YMEL, the enrichment ratio is ≤ 0.25.

For WYFC, the enrichment ratio was ≤ 0.25. In the case of GHTW, the enrichment ratio is ≤ 0.25. With CFHY the figure was ≤ 0.25; with SGFQ, 2.13; with SKLV, 12. Next, EWTR: ≤ 0.25; SIFD: ≤ 0.25. Next, MKSC: ≤ 0.25; MISC: 23; TNVY: ≤ 0.25. As to GRSP, the enrichment ratio is ≤ 0.25.

With AAII, the enrichment ratio was 12.4. Next, GYCG: ≤ 0.25; TAKG: ≤ 0.25. With GSKP, the enrichment ratio is ≤ 0.25.

Take DKMP: the enrichment ratio was ≤ 0.25. For the variant QNSQ, the enrichment ratio amounted to 2.33. Next, DYDF: ≤ 0.25; NKTF: ≤ 0.25. With YKLM the figure was 1.97. With KRLF, the enrichment ratio is ≤ 0.25. With METP the figure was ≤ 0.25; with GTAA, ≤ 0.25.
